The whole screen tested about 310,000 compounds, of which about 2,200 (0.71%) showed an effect of 50% or more. The effect is printed as a negative number. Some of the results follow.
Target: human ether-à-go-go-related gene (hERG) potassium channel (human, UniProt Q12809)
Experiment: primary screen, population patch clamp on CHO cells stably expressing hERG

Sequence of human ether-à-go-go-related gene (hERG) potassium channel (Q12809 whole entry, looked up): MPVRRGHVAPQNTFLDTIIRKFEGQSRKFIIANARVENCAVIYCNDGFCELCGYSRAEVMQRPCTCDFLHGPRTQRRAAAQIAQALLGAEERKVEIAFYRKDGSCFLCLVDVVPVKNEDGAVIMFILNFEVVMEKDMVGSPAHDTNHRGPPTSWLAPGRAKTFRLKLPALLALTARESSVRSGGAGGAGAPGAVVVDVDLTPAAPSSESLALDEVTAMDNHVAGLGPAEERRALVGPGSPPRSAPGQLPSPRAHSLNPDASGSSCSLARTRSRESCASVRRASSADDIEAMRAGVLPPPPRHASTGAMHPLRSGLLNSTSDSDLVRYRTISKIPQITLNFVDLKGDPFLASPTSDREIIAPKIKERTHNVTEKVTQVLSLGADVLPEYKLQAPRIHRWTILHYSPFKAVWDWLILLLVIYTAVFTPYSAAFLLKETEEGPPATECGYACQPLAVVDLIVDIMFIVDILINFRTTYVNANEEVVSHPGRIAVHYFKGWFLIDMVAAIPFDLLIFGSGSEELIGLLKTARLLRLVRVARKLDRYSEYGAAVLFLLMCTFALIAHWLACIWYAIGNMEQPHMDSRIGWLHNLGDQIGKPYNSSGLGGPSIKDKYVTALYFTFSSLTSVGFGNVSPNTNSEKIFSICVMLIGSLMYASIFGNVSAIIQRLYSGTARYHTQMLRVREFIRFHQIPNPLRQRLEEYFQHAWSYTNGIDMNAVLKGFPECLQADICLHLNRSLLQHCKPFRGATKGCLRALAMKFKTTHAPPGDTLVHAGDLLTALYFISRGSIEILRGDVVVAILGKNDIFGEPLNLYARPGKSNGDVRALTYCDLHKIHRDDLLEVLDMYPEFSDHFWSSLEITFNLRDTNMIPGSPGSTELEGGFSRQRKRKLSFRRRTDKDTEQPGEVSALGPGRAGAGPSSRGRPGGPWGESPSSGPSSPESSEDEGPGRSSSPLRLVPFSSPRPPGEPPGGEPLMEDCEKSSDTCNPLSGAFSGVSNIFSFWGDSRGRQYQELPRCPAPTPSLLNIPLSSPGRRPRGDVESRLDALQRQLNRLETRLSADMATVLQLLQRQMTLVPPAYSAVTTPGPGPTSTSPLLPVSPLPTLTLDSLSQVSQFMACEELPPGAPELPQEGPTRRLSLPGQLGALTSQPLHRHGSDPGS

Row | SMILES | hERG current change (%, negative = inhibition) at 1uM [%]
1 | COc1cccc(NC(=O)C(NCC2CCCCC2)c2ccccc2)c1.O=C(O)C(=O)O (centres unmarked) | 11.8
2 | COc1ccccc1Nc1nc(NCCC(C)C)nc(N)c1[N+](=O)[O-] | 14
3 | CCOC(=O)c1ccc2c(c1)n(CCCS(=O)(=O)[O-])c(/C=C/c1ccc(Cl)cc1)[n+]2CC | -7.29
4 | COCC1CCN(C(=O)C2CCC(=O)N(Cc3cccc(F)c3)C2)CC1 (centres unmarked) | 7.11
5 | COc1ccc(CN2CCN(c3ccccc3)CC2)c(C)c1C | -5.87
6 | CCOC(=O)CCC(NC(=O)CCCCCCCCC(=O)NC(CCC(=O)OCC)C(=O)OCC)C(=O)OCC (centres unmarked) | 9.55
7 | Cc1ccccc1NC(=S)N1CCC(NC(=O)c2ccco2)CC1 | -9.84
8 | CCN1CCN(C(=S)Nc2ccsc2C(=O)OC)CC1 | 5.27
9 | COc1ccc(CC(=O)Nc2nc(C)cs2)cc1OC | -14
10 | CC1(C)NC(=O)N(CC(=O)OCC(=O)Nc2cc(S(=O)(=O)N3CCCCCC3)ccc2Cl)C1=O | 5.4
11 | O=C(c1ccc(S(=O)(=O)N2CCCC2)cc1)N(Cc1ccco1)C1CCS(=O)(=O)C1 (centres unmarked) | 4.57
12 | CCOc1ccccc1NC(=O)c1ccc(CN2CCc3ccccc3C2)cc1 | 13.1
13 | CC(C)c1ccc(C2CC(=O)c3cnc(N4CCc5ccccc5C4)nc3C2)cc1 (centres unmarked) | 2.78
14 | O=C(COC(=O)c1ccccn1)NCCCc1ccccc1 | 10.3
15 | CCOc1ccc(S(=O)(=O)N2CCN(C(=O)c3ccc(-n4cncn4)c([N+](=O)[O-])c3)CC2)cc1 | -2.11
16 | COCCNC(=O)c1ccccc1NS(=O)(=O)c1ccc(Br)s1 | -1.73
17 | CCOc1ccc(NS(=O)(=O)c2ccc(-c3cnc(C4CC4)o3)cc2)cc1 | 8.66
18 | Cc1ccc(OCC(=O)N(Cc2nnc(-c3ccccc3Cl)o2)C2CC2)cc1C | 3.67
19 | O=C(Nc1ccccc1Cl)c1ccc2nccnc2c1 | 11
20 | Cc1ccc(C2(c3noc(CN(C)CC4COCCO4)n3)CCCC2)cc1 (centres unmarked) | 9.05
21 | O=C1CN(C(=O)c2cccc(F)c2)C(c2ccc(F)cc2)c2cc(F)ccc2N1 (centres unmarked) | 2.99
22 | COc1ccc(C(c2nnnn2C2CCCC2)N2CCN(c3ccccc3)CC2)cc1 (centres unmarked) | 8.87
23 | Cc1cc2c(C)cc(=O)[nH]c2cc1NC(=O)CCl | 12.8

Row | SMILES | hERG current change (%, negative = inhibition) at 1uM [%]
24 | Cc1cc(NS(=O)(=O)c2ccc(NC(=O)C(C)Oc3cccc(C)c3C)cc2)nc(C)n1 (centres unmarked) | 13.5
25 | CSc1ccccc1NC(=O)CN(C)CC(=O)Nc1cc(C)ccc1C | 3.34
26 | CC(=O)OCCCN1C(=O)c2cccc3cc(Br)cc(c23)C1=O | 13.7
27 | CN(C1CCCCC1)S(=O)(=O)c1cccc(C#N)c1 | 18.5
28 | O=C(CCC(=O)OCC(=O)c1ccc(-c2ccccc2)cc1)Nc1cccc2cccnc12 | 12.9
29 | CCCCC(=O)Nc1ccc2c(c1)C(=O)NC2=O | 4.32
30 | COc1ccc(-c2c(NC(C)=O)n(C)c3ccccc3c2=O)cc1 | 2.8
31 | CCOC(=O)N1CCC(NC(=O)c2cnn3c2NC(c2ccco2)CC3C(F)(F)F)CC1 (centres unmarked) | 2.18
32 | CCc1ccc(CC)c(S(=O)(=O)Nc2ccc(O)c(C(=O)O)c2)c1 | -6.83
33 | CCN1CCN(C(=O)c2c(-c3c(Cl)cccc3Cl)noc2C)CC1 | 11.9
34 | CC(C(=O)NC1CCCC1)N(Cc1ccc2c(c1)OCO2)C(=O)c1snc(C(N)=O)c1N (centres unmarked) | 14
35 | CC(=O)c1ccc(NC(=S)NC(=O)/C=C/c2ccco2)cc1 | 12.9
36 | Cc1nn(C)c(C)c1/C=C/C(=O)O | 7.48
37 | c1csc(-c2nc3ccccn3c2NC2CCCCC2)c1 | 3.51
38 | O=C(NCC(=O)N(CCN1CCOCC1)C(C(=O)NC1CCCC1)c1cccs1)c1ccco1 (centres unmarked) | 5.39
39 | CCOC(=O)C(NCCCO)c1ccccc1 (centres unmarked) | 5.28
40 | CN(C(=O)c1ccccn1)c1nnc(-c2cccnc2)s1 | 7.46
41 | CCCCCCC(=O)N/N=C/Cc1ccccc1 | 1.46
42 | C=CCNC(=O)/C(=C/c1ccco1)NC(=O)c1ccc(Br)o1 | 9.22
43 | Cc1ccccc1Oc1ccccc1N | 17.3
44 | Cc1cc2nc3c(=O)n(Cc4ccccc4)c(=O)[nH]c3nc2cc1N | 7.59
45 | O=C(Nc1ccccc1Cl)c1ccc2nc(N3CCOCC3)sc2c1 | 11.4
46 | COc1ccc(/C(N)=N/OC(=O)CSc2ccccc2)cc1OC | 11

Row | SMILES | hERG current change (%, negative = inhibition) at 1uM [%]
47 | COc1cc(OC)c(C2NC(=O)CCC2[N+](=O)[O-])cc1OC (centres unmarked) | 12.3
48 | Nc1nonc1C(=Nc1ccc(Br)cc1)NO | 9.26
49 | COc1ccc(C(=O)O)cc1NCc1ccc(C)s1 | 20.7
50 | Cc1cc(Cl)c(S(=O)(=O)NCc2cccnc2)cc1OCC(=O)NC1CCCCC1 | -18.8
51 | Cc1cc(Cl)ccc1C(=O)C1CCCN(C(=O)c2cnsn2)C1 (centres unmarked) | 7.09
52 | CC(=O)c1ccccc1C(=O)NCc1cccnc1 | 3.39
53 | CCOC(=O)N1CCC(N2CCN(S(=O)(=O)c3ccc(OC)cc3)CC2)CC1.O=C(O)C(=O)O | 1.98
54 | COc1ccc(/C=C/C(=O)Nc2sc(Cc3ccccc3)c(C)c2C(N)=O)cc1 | 4.59
55 | O=C(NCc1nnnn1-c1ccc(F)cc1)c1ccc([N+](=O)[O-])o1 | 3.63
56 | Cn1ccsc1=NC(=O)c1ccc([N+](=O)[O-])o1 | 2.7
57 | CCOc1ccc(S(=O)(=O)NCCC(=O)Nc2cccc(C(=O)OC)c2)cc1 | 2.98
58 | CNC(=S)N/N=C(\C)c1ccc(C)c(C)c1 | -0.582
59 | Cn1nc(C(=O)N2CCN(c3cccc(Cl)c3)CC2)c2c1-c1ccccc1S(=O)(=O)C2 | -30.8
60 | O=C(Nc1cnc2ccccc2c1)c1cccnc1 | 16.9
61 | CC(=O)Nc1csc2ccccc12 | 4.39
62 | C/C(=N\NC(=O)C(O)c1ccccc1)c1ccc(Cl)s1 (centres unmarked) | 3.85
63 | CCCC(=O)NCCCc1nc2ccccc2n1CC | 8.43
64 | Cc1cc(C)c(NC(=O)COc2ccccc2C(=O)Nc2ccc3c(c2)oc2ccccc23)c(C)c1 | -0.166
65 | O=C(Nc1cccc(-n2cnnn2)c1)c1ccccc1Br | 9.08
66 | Cc1cc(C)c2nc(N3CCCC(C(=O)NCCN4CCOCC4)C3)sc2c1 (centres unmarked) | 1.89
67 | CC(=O)NCCNC(=O)c1ccc(NC2=NC3CS(=O)(=O)CC3S2)cc1 (centres unmarked) | 7.25
68 | O=C(NCc1ccncc1)c1ccc(Cn2cc(C(F)(F)F)ccc2=O)cc1 | 11.8
69 | O=C(Nc1ccc(N2CCN(C(=O)c3ccccc3F)CC2)cc1)c1cncc(Br)c1 | 4.97

Row | SMILES | hERG current change (%, negative = inhibition) at 1uM [%]
70 | O=C(COC(=O)c1cccc([N+](=O)[O-])c1)c1ccc2c(c1)OCO2 | 6.17
71 | COc1ccc(C(=O)NCCn2cc(SCC(N)=O)c3ccccc32)cc1 | 7.97
72 | CCN1CCN(C(=O)C2CCN(S(=O)(=O)c3ccc(Br)cc3)CC2)CC1 | 6.11
73 | CCNC(=S)N1CCC(C(=O)c2ccc(Cl)cc2)CC1 | 6.08
74 | Cc1cc(C)c(S(=O)(=O)NCc2ccc3c(c2)OCO3)cc1C | 9.23
75 | COc1ccc(CCNC(=O)C2CCCN(c3nc(C)cc(C)n3)C2)cc1 (centres unmarked) | 17.9
76 | COc1ccc(C)cc1NC(=O)CSc1ccc(Cl)cc1 | 9.34
77 | COc1cc2c(cc1NC(=O)c1ccncc1)oc1ccccc12 | 0.154
78 | NNC(=O)Cn1c(-c2ccccn2)nc2ccccc21 | 14.1
79 | CC(C)c1ccc(NC(=O)[C@H](Cc2c[nH]c3ccccc23)NC(=O)[C@@H]2Cc3ccccc3CN2)cc1 | 13
80 | Cc1c(Cc2ccccc2)c(=O)oc2c(C)c(OC(C)C(=O)NCC3CCC(C(=O)O)CC3)ccc12 (centres unmarked) | 13.9
81 | COC(=O)c1ccc(S(=O)(=O)c2ccc(C(=O)OC)s2)s1 | 13.1
82 | CCOC(=O)CN1C(=N)N(c2nc(NC(C)C)nc(NC(C)C)n2)CC1=O | -22.5
83 | Cc1cccc(NC(=O)Cn2nnc3ccccc32)c1 | 12.5
84 | CCC(C)N(C(=O)COc1ccc(Br)cc1C=O)C1CCS(=O)(=O)C1 (centres unmarked) | 0.773
85 | Cc1nn(-c2ccc(Cl)c(Cl)c2)c(=O)c2ccccc12 | 5.47
86 | COC(=O)c1ccc(C2C(C#N)=C(N)Oc3cc(N)ccc32)cc1 (centres unmarked) | 9.9
87 | CCCCn1c(N)c(N(CC(C)C)C(=O)c2cccc(S(=O)(=O)N(C)c3ccccc3)c2)c(=O)[nH]c1=O | 10.2
88 | Cc1cc(C)cc(N(CCC#N)C(=O)CSc2n[nH]c(N)n2)c1 | 11.6
89 | CC(=O)Nc1ccc(S(=O)(=O)NCC(=O)OCC(=O)NC(=O)C2CCCCC2)cc1 | 20.4

From article PMC4336329 (PLoS ONE, 2015)
